# Data reported in PubChem BioAssay AID686979 (National Center for Advancing Translational Sciences (NCATS), 2013).
# The whole screen tested about 420,000 compounds, of which about 50,000 (12%) were called active. The shares of active, inactive and inconclusive entries below differ from those in the screen. Calls come from the whole dose curve; as a rule, active = well fitted inhibition curve with a large enough effect; inconclusive = small, poorly fitted or top-dose-only effect; inactive = flat fitted curve, though single readings scatter. Potencies of inconclusive entries are left out as doubtful fits.
# Test: qHTS for Inhibitors of human tyrosyl-DNA phosphodiesterase 1 (TDP1): qHTS in cells in presence of CPT; note: nearly all actives have a fitted effect of over 55% in size
# Settings: chicken DT40 Tdp1-/-;hTDP1 cells + 20 nM CPT, ATP luminescence, 48 h; activity change, negative = growth inhibition: at 46.2 µM (top of the series) unless noted
# Summary of the method: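 Chicken DT40 Tdp1-/- cells stably complemented with human TDP1 were seeded at 400 cells/well in medium containing 20 nM camptothecin, exposed to pin-transferred compounds, and grown at 37 °C for at least 48 hr. Viability was read as ATP luminescence.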
# % is set by controls: 0 for no effect and ±100 for the full control effect; potency is the fitted concentration of half-maximal effect; tags give direction and shape of the fitted curve.
SMILES,Potency,"activity change, negative = growth inhibition"
Cc1ccc(OCCC(=O)OCC(=O)N2c3ccccc3NC(=O)C2(C)C)cc1,inactive,–
CCOC(=O)N1CCC(NC(=O)c2cccc3c2C(=O)N(c2ccc(OC)cc2)C3)CC1,active: 14.6 µM,–
COc1ccc(NC(=O)CSc2nc3ccccc3c(=O)n2CCCO)cn1,inactive,–
O=C(NCCc1c[nH]c2ccccc12)C(=O)NCC1OCCN1S(=O)(=O)c1cc(F)ccc1F (stereo unspecified),"inconclusive [inhibitor, single point]",–
CCOC(=O)N1CCN(Cc2nc3c(c(=O)n(C)c(=O)n3C)n2Cc2ccc(F)cc2)CC1,"inconclusive [inhibitor, single point]",–
Nc1nc(CSC(=S)N2CCCCC2)nc(Nc2ccccc2)n1,"inconclusive [inhibitor, partial curve]",–
C=CCn1c(COc2cc(C)ccc2C(C)C)nnc1SCC(=O)c1c(N)n(C)c(=O)n(C)c1=O,"inconclusive [inhibitor, single point]",–
COC(=O)N1CC(=O)N(OC)C1c1ccc(Cl)cc1Cl (stereo unspecified),inactive,–
CC(=O)C(Cc1ccccc1)NC(=O)CCl (stereo unspecified),"inconclusive [inhibitor, single point]",–
CSc1ncnc2c1ncn2CCCNc1ccc(C)c(C)c1,"inconclusive [inhibitor, single point]",–
CCOc1ccc(C(C)=O)cc1CSC(=N)N,"inconclusive [inhibitor, single point]",–
O=C(CNC(=O)c1ccc2ccccc2c1)OCC(=O)N1CCN(S(=O)(=O)c2ccc3ccccc3c2)CC1,–,inconclusive: -33.4% [inhibitor]
Cc1ccc(CCNS(=O)(=O)c2ccc(C)cc2)cc1,"inconclusive [inhibitor, single point]",–
Cc1cc(C)c(C)c(SCC(=O)Nc2oc(C)c3c(C)n[nH]c(=O)c23)c1C,"inconclusive [inhibitor, single point]",–
O=C(CCn1c(=O)c2sccc2n(Cc2ccc(F)cc2)c1=O)NCc1ccc2c(c1)OCO2,"inconclusive [inhibitor, single point]",–
OCC[C@@H]1C[C@H](O)[C@@H](O)[C@]2(CCCc3ccccc3O2)O1,inactive,–
O=C(CCCCCn1c(=S)[nH]c2cc3c(cc2c1=O)OCO3)N1CCN(C2CCCCC2)CC1,"inconclusive [inhibitor, single point]",–
Cc1onc(-c2c(F)cccc2Cl)c1C(=O)OCC(=O)N(C)c1ccccc1,active: 1.3 µM,–
COc1cccc(Nc2nnc(-c3cc4ccc(O)cc4oc3=O)s2)c1,"inconclusive [inhibitor, single point]",–
Cc1ccc(SC[C@H](c2ccccc2)N2CCN(CC(C)C)CCC2=O)cc1,active: 16.4 µM,–
Cc1cc(NC(=O)Cc2ccccc2)ccc1NC(=O)c1cccs1,"inconclusive [inhibitor, partial curve, poor fit]",–
CN(Cc1ccccc1)c1nc2c(c(=O)[nH]c(=O)n2C)n1CCOc1ccccc1,"inconclusive [inhibitor, single point]",–
O=C(/C=C/c1c(F)cccc1Cl)c1ccc(F)cc1,active: 20.6 µM,–
COc1ccccc1NC(=O)CCC(=O)OCc1cccc([N+](=O)[O-])c1,inactive,–

SMILES,Potency,"activity change, negative = growth inhibition"
O=C(c1ccc(Cn2cc(Br)cn2)o1)N1N=C(C(F)F)CC1(O)C(F)F (stereo unspecified),active: 20 µM,–
CCCCCn1c(=O)[nH]c2cc(C(=O)NC3CCN(Cc4ccccc4)CC3)ccc2c1=O,"inconclusive [inhibitor, partial curve]",–
CC(C)OC(=O)CC(=O)c1sc2nc3c(cc2c1N)CN(C)CC3,"inconclusive [inhibitor, single point]",–
Cc1ccc(NC(=O)CC2Oc3ccc(C)cc3NC2=O)c(C)c1 (stereo unspecified),"inconclusive [inhibitor, single point]",–
Cc1ccc(NC(=O)C2SC(=Nc3ccccc3)C(C(=O)Nc3ccc(Cl)cc3)=C2N)cc1 (stereo unspecified),active: 6.51 µM,–
O=C(N/N=C/c1ccccn1)c1cc(-c2ccc(Br)s2)[nH]n1,"inconclusive [inhibitor, single point]",–
C/C(=N\NC(=O)c1ccc(Cl)cc1)c1cccc(NC(=O)c2cccnc2)c1,"inconclusive [inhibitor, single point]",–
CCCC(=O)NC(NC(=S)Nc1c(C)n(C)n(-c2ccccc2)c1=O)C(Cl)(Cl)Cl (stereo unspecified),"inconclusive [inhibitor, single point]",–
CC(C)c1ccc(/C=C2\SC(=O)N(CC(=O)NCCCn3ccnc3)C2=O)cc1,"inconclusive [inhibitor, single point]",–
Cc1ccc(Cl)cc1N1CCN(C(=O)Cn2cnc3onc(-c4ccc(F)cc4)c3c2=O)CC1,active: 18.4 µM,–
CCc1nc2ccc(C(=O)N3CCN(c4ccccc4F)CC3)cc2nc1CC,active: 20.6 µM,–
CCOC(=O)C1(C)CCCN(C(=O)c2snnc2C)C1 (stereo unspecified),inactive,–
O=C1OC(c2ccccc2)=C/C1=C/N1CCCCC1,"inconclusive [inhibitor, partial curve]",–
CCCNC(=O)NC(=O)COC(=O)c1ccc(OC)c(S(=O)(=O)N2CCCc3ccccc32)c1,–,inconclusive: -34.4% [inhibitor]
CC(=O)Nc1ccc(N2CCOCC2)c(C(=O)Nc2cccc(C)c2)c1,active: 13 µM,–
O=C(CSc1nccn(-c2cccc(F)c2)c1=O)Nc1ccc(Cl)cc1F,inactive,–
Cc1cc(N/N=C/c2ccc(O)cc2O)nc(-c2ccccc2O)n1,"inconclusive [inhibitor, single point]",–
COc1ccc(N2CCN(C(=O)CSc3nnc4c(C)cc5cc(C)ccc5n34)CC2)cc1,"inconclusive [inhibitor, single point]",–
Cc1ccc(CN2CCSc3ccc(C(=O)N4CCOCC4)cc32)cc1,"inconclusive [inhibitor, single point]",–
O=C(Nc1ccc(F)cc1)C1CCCN1S(=O)(=O)c1ccc(Br)cc1 (stereo unspecified),"inconclusive [inhibitor, single point]",–
COC(=O)c1ccc(CSc2ncnc3c2oc2ccccc23)o1,"inconclusive [inhibitor, single point]",–
O=C(NC1CCC1)C1CCC(=O)N(Cc2ccc(Cl)cc2)C1 (stereo unspecified),inactive,–
Cc1ccc(NC(=O)CN(Cc2ccco2)Cc2ccccc2O)cc1C,"inconclusive [inhibitor, single point]",–
Cc1ccccc1OCCC(=O)OCC(=O)Nc1ccc(N2CCOCC2)cc1,active: 16.4 µM,–

SMILES,Potency,"activity change, negative = growth inhibition"
O=C(c1ccc(S(=O)(=O)N2CCOCC2)cc1)N(c1ccccn1)C1CCCCC1,"inconclusive [inhibitor, partial curve, poor fit]",–
C1CCN(Cc2nnnn2CC2CCCO2)CC1 (stereo unspecified),inactive,–
O=C(Nc1ccccc1N1CCCCC1)c1ccc(F)c(S(=O)(=O)N2CCOCC2)c1,active: 16.4 µM,–
COC(=O)c1nn(C23CC4CC(CC(C4)C2)C3)c2c1C(=O)N(c1ccc(Br)cc1)C2=O,–,inconclusive: -31.1% [inhibitor]
COc1ccc(-c2cc3nc(C)c(CCC(=O)NCc4ccco4)c(C)n3n2)c(OC)c1,"inconclusive [inhibitor, single point]",–
O=C(NC1CCCc2ccccc21)C1CCN(C(=O)c2sccc2-n2cccc2)CC1 (stereo unspecified),active: 14.6 µM,–
Cc1nc(N)nc(Nc2ccc(Cl)cc2)c1Br,"inconclusive [inhibitor, partial curve]",–
CCc1cccc(C)c1NC(=O)Nc1ccc2c(c1)OCO2,inactive,–
CC1(C)CC(=O)C(C2=NC3(CCCCCC3)Cc3ccccc32)=C(O)C1,"inconclusive [inhibitor, single point]",–
CS(=O)(=O)N1CCc2cc(-c3csc(NC(=O)Cc4cccs4)n3)ccc21,active: 13 µM,–
CCOC(=O)COc1c(-c2ccc(OC)cc2)oc2ccccc2c1=O,"inconclusive [inhibitor, single point]",–
CCN(CC)CCn1c(NCc2ccc3c(c2)OCO3)nc2ccccc21,active: 13 µM,–
CC(C)C1Nc2c(O)cc(Cl)c([N+](=O)[O-])c2C2C=CCC21 (stereo unspecified),"inconclusive [inhibitor, single point]",–
COc1cccc(NC(=O)Nc2nnc([C@@H]3C[C@H](O)[C@@H](CO)O3)s2)c1,inactive,–
CC(C)[C@@H](CO)NC(=O)c1ccc2c3n(nc2c1)-c1ccccc1CO3,"inconclusive [inhibitor, partial curve]",–
COc1ccc(NS(=O)(=O)c2cccc(N/C(=N\S(=O)(=O)c3ccccc3)c3ccc(F)cc3)c2)cc1,active: 20.6 µM,–
CCC1CC(C)(C(=O)Nc2ccc(S(N)(=O)=O)cc2)OC1=O (stereo unspecified),inactive,–
COc1ccc2c(c1)C1C=CCC1C(c1cc3c(cc1Br)OCO3)N2 (stereo unspecified),"inconclusive [inhibitor, single point]",–
COc1ccc(C(=O)CSc2nnc(COc3ccccc3)n2Cc2ccco2)cc1,"inconclusive [inhibitor, single point]",–
CCn1nnnc1SCC(=O)N1CCCc2ccccc21,inactive,–
COc1ccc(OC)c(-c2cc(C(=O)Nc3ccc(C)c(C)c3)no2)c1,"inconclusive [inhibitor, single point]",–
COc1ccc(C(=O)NCCCOc2cccc(NC(C)=O)c2)cc1,inactive,–
CCOC(=O)c1c(C)[nH]c(C(=O)OCC(=O)NC2(C#N)CCCCC2)c1C,"inconclusive [inhibitor, single point]",–
